Data on 31 molecules can be found in publication PMC9911399, “Two distinct binding modes provide the RNA-binding protein RbFox with extraordinary sequence specificity”.

The labels stand for the following.
T1: RBFOX1 RRM (Homo sapiens, UniProt Q9NWB1 109-208)
T1 sequence: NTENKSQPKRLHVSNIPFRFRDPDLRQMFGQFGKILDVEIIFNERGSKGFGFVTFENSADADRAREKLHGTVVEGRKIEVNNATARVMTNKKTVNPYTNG

B1: UUGUAAA (DNA:RNA)
RNA: GGGAGACCGGAAUUCAGAUUGUCCUUGUAAAUUAAAUCCCGUCGUAGCCACCA
DNA 1: CAATCTGAATTCCGGTCTCCC
DNA 2: TGGTGGCTACGACGGGATT
B2: GCGAACA (DNA:RNA)
RNA: B1 RNA with U25G, U26C, U28A, A30C
DNA 1: CAATCTGAATTCCGGTCTCCC
DNA 2: TGGTGGCTACGACGGGATT
B3: UCAGUUA (DNA:RNA)
RNA: B1 RNA with U26C, G27A, U28G, A29U, A30U
DNA 1: CAATCTGAATTCCGGTCTCCC
DNA 2: TGGTGGCTACGACGGGATT
B4: CUCAUUC (DNA:RNA)
RNA: B1 RNA with U25C, G27C, U28A, A29U, A30U, A31C
DNA 1: CAATCTGAATTCCGGTCTCCC
DNA 2: TGGTGGCTACGACGGGATT
B5: UGGGUUG (DNA:RNA)
RNA: B1 RNA with U26G, U28G, A29U, A30U, A31G
DNA 1: CAATCTGAATTCCGGTCTCCC
DNA 2: TGGTGGCTACGACGGGATT
B6: UUGUUCG (DNA:RNA)
RNA: B1 RNA with A29U, A30C, A31G
DNA 1: CAATCTGAATTCCGGTCTCCC
DNA 2: TGGTGGCTACGACGGGATT
B7: UCAAAGA (DNA:RNA)
RNA: B1 RNA with U26C, G27A, U28A, A30G
DNA 1: CAATCTGAATTCCGGTCTCCC
DNA 2: TGGTGGCTACGACGGGATT
B8: GAGCGUA (DNA:RNA)
RNA: B1 RNA with U25G, U26A, U28C, A29G, A30U
DNA 1: CAATCTGAATTCCGGTCTCCC
DNA 2: TGGTGGCTACGACGGGATT
B9: UAAUGGG (DNA:RNA)
RNA: B1 RNA with U26A, G27A, A29G, A30G, A31G
DNA 1: CAATCTGAATTCCGGTCTCCC
DNA 2: TGGTGGCTACGACGGGATT
B10: CUGAAAG (DNA:RNA)
RNA: B1 RNA with U25C, U28A, A31G
DNA 1: CAATCTGAATTCCGGTCTCCC
DNA 2: TGGTGGCTACGACGGGATT
B11: UGCACCU (DNA:RNA)
RNA: B1 RNA with U26G, G27C, U28A, A29C, A30C, A31U
DNA 1: CAATCTGAATTCCGGTCTCCC
DNA 2: TGGTGGCTACGACGGGATT
B12: GACGAGC (DNA:RNA)
RNA: B1 RNA with U25G, U26A, G27C, U28G, A30G, A31C
DNA 1: CAATCTGAATTCCGGTCTCCC
DNA 2: TGGTGGCTACGACGGGATT
B13: GUUCCGC (DNA:RNA)
RNA: B1 RNA with U25G, G27U, U28C, A29C, A30G, A31C
DNA 1: CAATCTGAATTCCGGTCTCCC
DNA 2: TGGTGGCTACGACGGGATT
B14: CUUCGAG (DNA:RNA)
RNA: B1 RNA with U25C, G27U, U28C, A29G, A31G
DNA 1: CAATCTGAATTCCGGTCTCCC
DNA 2: TGGTGGCTACGACGGGATT
B15: CGCCGUG (DNA:RNA)
RNA: GGGAGACCGGAAUUCAGAUUGUCCCGCCGUGUUAAAUCCCGUCGUAGCCACCA
DNA 1: CAATCTGAATTCCGGTCTCCC
DNA 2: TGGTGGCTACGACGGGATT
B16: UCGCCUU (DNA:RNA)
RNA: B15 RNA with C25U, G26C, C27G, G29C, G31U
DNA 1: CAATCTGAATTCCGGTCTCCC
DNA 2: TGGTGGCTACGACGGGATT
B17: AAUUCCG (DNA:RNA)
RNA: B15 RNA with C25A, G26A, C27U, C28U, G29C, U30C
DNA 1: CAATCTGAATTCCGGTCTCCC
DNA 2: TGGTGGCTACGACGGGATT
B18: CUCCGCU (DNA:RNA)
RNA: B15 RNA with G26U, U30C, G31U
DNA 1: CAATCTGAATTCCGGTCTCCC
DNA 2: TGGTGGCTACGACGGGATT
B19: CUGAACG (DNA:RNA)
RNA: B1 RNA with U25C, U28A, A30C, A31G
DNA 1: CAATCTGAATTCCGGTCTCCC
DNA 2: TGGTGGCTACGACGGGATT
B20: UGAAAAC (DNA:RNA)
RNA: B1 RNA with U26G, G27A, U28A, A31C
DNA 1: CAATCTGAATTCCGGTCTCCC
DNA 2: TGGTGGCTACGACGGGATT
B21: GAACACG (DNA:RNA)
RNA: B15 RNA with C25G, G26A, C27A, G29A, U30C
DNA 1: CAATCTGAATTCCGGTCTCCC
DNA 2: TGGTGGCTACGACGGGATT
B22: GUAUUAC (DNA:RNA)
RNA: B1 RNA with U25G, G27A, A29U, A31C
DNA 1: CAATCTGAATTCCGGTCTCCC
DNA 2: TGGTGGCTACGACGGGATT
B23: CACAUAU (DNA:RNA)
RNA: B15 RNA with G26A, C28A, G29U, U30A, G31U
DNA 1: CAATCTGAATTCCGGTCTCCC
DNA 2: TGGTGGCTACGACGGGATT
B24: UCAGUGG (DNA:RNA)
RNA: B15 RNA with C25U, G26C, C27A, C28G, G29U, U30G
DNA 1: CAATCTGAATTCCGGTCTCCC
DNA 2: TGGTGGCTACGACGGGATT
B25: UGAGCAU (DNA:RNA)
RNA: B1 RNA with U26G, G27A, U28G, A29C, A31U
DNA 1: CAATCTGAATTCCGGTCTCCC
DNA 2: TGGTGGCTACGACGGGATT
B26: CUUUGAA (DNA:RNA)
RNA: B1 RNA with U25C, G27U, A29G
DNA 1: CAATCTGAATTCCGGTCTCCC
DNA 2: TGGTGGCTACGACGGGATT
B27: AUCUUCA (DNA:RNA)
RNA: B1 RNA with U25A, G27C, A29U, A30C
DNA 1: CAATCTGAATTCCGGTCTCCC
DNA 2: TGGTGGCTACGACGGGATT
B28: UGCUGAG (DNA:RNA)
RNA: B15 RNA with C25U, C28U, U30A
DNA 1: CAATCTGAATTCCGGTCTCCC
DNA 2: TGGTGGCTACGACGGGATT
B29: CAAGCCG (DNA:RNA)
RNA: B15 RNA with G26A, C27A, C28G, G29C, U30C
DNA 1: CAATCTGAATTCCGGTCTCCC
DNA 2: TGGTGGCTACGACGGGATT
B30: UAGGCAC (DNA:RNA)
RNA: B1 RNA with U26A, U28G, A29C, A31C
DNA 1: CAATCTGAATTCCGGTCTCCC
DNA 2: TGGTGGCTACGACGGGATT
B31: AUCUUGA (DNA:RNA)
RNA: B1 RNA with U25A, G27C, A29U, A30G
DNA 1: CAATCTGAATTCCGGTCTCCC
DNA 2: TGGTGGCTACGACGGGATT

Residue numbers refer to the chain shown, from its start. Some of the results follow.

The target in this assay is T1, RBFOX1 RRM. Nature of the assay: EMSA; HiTS-Eq, 1 nM pool, 10 min; buffer printed only for the single-RNA assays: 10 mM Tris pH 7.5, 150 mM NaCl, 3.4 mM EDTA, 0.001% NP-40, 30 C. The note with it: tags: His6 N-terminal (pET28a); label: 5' 32P. In outline:
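These values rest on relative association constants, computed from read-count changes of each RNA species versus the control reaction and normalised to the cognate motif. Reads came from free RNA recovered by 8% native PAGE after purified RbFox RRM (wild type or mutant) at increasing concentrations was equilibrated for 10 min in 50 µL with 1 nM of a 5′-radiolabelled pool with 7 randomized nucleotides and DNA-annealed flanks.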
In the case of B1, the binding signal was 0.0106 KA relative to UGCAUGU.

Regarding B2, the binding signal is 0.0052 KA relative to UGCAUGU.

With B3, the binding signal was 0.00506 KA relative to UGCAUGU.

On to B4, for which the binding signal is 0.00227 KA relative to UGCAUGU.

For B5, the binding signal is 0.0558 KA relative to UGCAUGU.

Regarding B6, the binding signal is 0.0364 KA relative to UGCAUGU.

For B7, the binding signal is 0.00287 KA relative to UGCAUGU.

Regarding B8, the binding signal is 0.0119 KA relative to UGCAUGU.

B9: the binding signal was 0.00307 KA relative to UGCAUGU.

As for B10, the binding signal is 0.0153 KA relative to UGCAUGU.

With B11, the binding signal was 0.0129 KA relative to UGCAUGU.

Consider B12, for which the binding signal is 0.0192 KA relative to UGCAUGU.

With B13, the binding signal is 0.0197 KA relative to UGCAUGU.

For the molecule B14, the binding signal was 0.011 KA relative to UGCAUGU.

Turning to B15, the binding signal was 0.0115 KA relative to UGCAUGU.

As to B16, the binding signal is 0.0126 KA relative to UGCAUGU.

B17: the binding signal is 0.00338 KA relative to UGCAUGU.

As to B18, the binding signal was 0.00787 KA relative to UGCAUGU.

With B19, the binding signal was 0.0193 KA relative to UGCAUGU.

As to B20, the binding signal is 0.00541 KA relative to UGCAUGU.

For the molecule B21, the binding signal was 0.00645 KA relative to UGCAUGU.

Consider B22, for which the binding signal was 0.0036 KA relative to UGCAUGU.

Turning to B23, the binding signal is 0.000934 KA relative to UGCAUGU.

Turning to B24, the binding signal is 0.0121 KA relative to UGCAUGU.

On to B25, for which the binding signal was 0.0172 KA relative to UGCAUGU.

For B26, the binding signal was 0.0159 KA relative to UGCAUGU.

In the case of B27, the binding signal is 0.0037 KA relative to UGCAUGU.

As to B28, the binding signal is 0.0319 KA relative to UGCAUGU.

On to B29, for which the binding signal was 0.00258 KA relative to UGCAUGU.

Consider B30, for which the binding signal is 0.0119 KA relative to UGCAUGU.

For B31, the binding signal is 0.012 KA relative to UGCAUGU.
